# Experimental data: paper PMC4336329 (PLoS ONE, 2015)
# The whole screen tested about 310,000 compounds, of which about 2,200 (0.71%) showed an effect of 50% or more. Effects have a minus sign here. Some of the results follow.
# Biological target: human ether-à-go-go-related gene (hERG) potassium channel (human, UniProt Q12809)
# Assay: primary screen, population patch clamp on CHO cells stably expressing hERG
# human ether-à-go-go-related gene (hERG) potassium channel, sequence (Q12809 whole entry, looked up): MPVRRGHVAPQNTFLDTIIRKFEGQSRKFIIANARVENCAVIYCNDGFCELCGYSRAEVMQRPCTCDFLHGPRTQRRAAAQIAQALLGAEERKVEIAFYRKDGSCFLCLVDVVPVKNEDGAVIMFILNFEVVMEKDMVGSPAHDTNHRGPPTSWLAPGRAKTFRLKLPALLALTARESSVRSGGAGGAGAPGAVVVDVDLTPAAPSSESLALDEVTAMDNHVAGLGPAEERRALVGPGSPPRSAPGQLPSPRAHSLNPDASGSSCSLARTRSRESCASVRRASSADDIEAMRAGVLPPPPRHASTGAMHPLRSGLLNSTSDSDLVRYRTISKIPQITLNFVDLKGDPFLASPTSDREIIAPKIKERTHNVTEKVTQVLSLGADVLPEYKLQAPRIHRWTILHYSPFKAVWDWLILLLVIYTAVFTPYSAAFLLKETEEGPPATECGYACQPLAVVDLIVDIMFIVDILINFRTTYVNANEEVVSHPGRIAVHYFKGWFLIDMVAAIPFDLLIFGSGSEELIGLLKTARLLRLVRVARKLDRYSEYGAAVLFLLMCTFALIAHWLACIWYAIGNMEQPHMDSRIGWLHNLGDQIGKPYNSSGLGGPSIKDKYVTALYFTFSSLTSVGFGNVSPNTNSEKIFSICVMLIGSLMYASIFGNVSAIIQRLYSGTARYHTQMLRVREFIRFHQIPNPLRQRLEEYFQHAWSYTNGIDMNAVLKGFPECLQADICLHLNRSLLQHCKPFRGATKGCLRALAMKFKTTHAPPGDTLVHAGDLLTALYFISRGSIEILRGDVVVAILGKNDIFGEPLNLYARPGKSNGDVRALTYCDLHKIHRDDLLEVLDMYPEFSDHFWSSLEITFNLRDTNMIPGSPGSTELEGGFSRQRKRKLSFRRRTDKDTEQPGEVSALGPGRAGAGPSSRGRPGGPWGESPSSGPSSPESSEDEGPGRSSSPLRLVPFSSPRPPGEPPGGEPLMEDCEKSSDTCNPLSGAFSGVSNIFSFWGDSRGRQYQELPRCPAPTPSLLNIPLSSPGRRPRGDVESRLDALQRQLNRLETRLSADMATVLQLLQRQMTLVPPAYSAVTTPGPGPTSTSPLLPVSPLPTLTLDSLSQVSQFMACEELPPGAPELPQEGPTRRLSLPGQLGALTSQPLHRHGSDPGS
row,SMILES,"hERG current change (%, negative = inhibition) at 1uM"
1,COc1ccc(-c2nnc(SCC(=O)c3[nH]c(C)c(C(C)=O)c3C)o2)cc1,1.98%
2,Oc1cccc(C(=S)N2CCC(Cc3ccccc3)CC2)c1,14%
3,COc1cccc(NC(=S)NN2C(C)CCCC2C)c1 (centres unmarked),5.92%
4,O=C(Nc1nnc(SCC(=O)N2CCCC2)s1)C1CC(=O)N(c2ccccc2)C1 (centres unmarked),14.9%
5,Cc1cnccc1NC(=O)c1cccs1,5.06%
6,CC(C)(C)CC(=O)Nc1nnc(-c2cccs2)s1,6.56%
7,Cc1cccc(NS(=O)(=O)c2cccc(C(=O)N3CCCCCC3)c2)c1,11.8%
8,CN(CC(=O)Nc1cccc(F)c1)C(=O)c1cccc(S(=O)(=O)N2CCN(c3ccccc3)CC2)c1,-2.88%
9,COC(=O)c1ccccc1NC(=O)N1CCN(Cc2ccco2)CC1,13.4%
10,O=C(CCc1nnc2ccc(NCc3ccco3)nn12)Nc1ccccc1F,10.6%
11,Cc1csc(NC(=O)CSc2nc(C)nc3c2c(=O)n(C)c(=O)n3C)n1,3.97%
12,CCN(C(=O)Cc1c(C(=O)O)n(CC)c2ccccc12)c1ccccc1C,14.7%
13,COc1cc(NC(=O)NCC2CCN(Cc3ccccc3F)CC2)cc(OC)c1,9.58%
14,O=C(c1ccccc1)N1CCN2C(=O)c3ccccc3C12c1ccc(Cl)cc1 (centres unmarked),8.41%
15,CC(C)Cc1nnc(NC(=O)C2CSC3(C)CCC(=O)N23)s1 (centres unmarked),4.72%
16,CC(C)c1c(C(=O)N/N=C/c2ccccc2C(=O)O)nnn1-c1nonc1N,7.36%
17,O=C(Nc1cccnc1Cl)c1cc(-c2ccc(F)cc2)on1,10%
18,COC(=O)c1c(NC(=O)CCNCc2ccco2)sc2c1CCC2.O=C(O)C(=O)O,2.08%
19,NC(=O)c1sc2nc3c(c(-c4ccco4)c2c1N)CCCC3,8.13%

row,SMILES,"hERG current change (%, negative = inhibition) at 1uM"
1,CC12CS(=O)(=O)CC1SC(=S)N2c1ccccn1 (centres unmarked),9.88%
2,CCN1CCN(C(=O)c2[nH]c3ccc(OC)cc3c2C)CC1,4.51%
3,CCN(CC)CCCNC(=O)CCc1c(C)n(CC)c2cc(-c3ccccc3OC)nn2c1=O,21.1%
4,CC1=[N+]([O-])C(C)(C)C(c2ccc(Br)cc2)=[N+]1[O-],3.36%
5,C=CCNC(=O)c1c(CSc2ccccc2)noc1C(=O)NCc1ccccc1,17.7%
6,O=C(NCc1cccs1)C1CCC(=O)N(Cc2cccc(C(F)(F)F)c2)C1 (centres unmarked),12.4%
7,CCOCCCN(C(=O)c1snc(C(N)=O)c1N)C(C(=O)NC1CCCC1)c1ccc(O)c(OC)c1 (centres unmarked),11%
8,CC(=O)Oc1ccccc1C(=O)NC(C)CCc1ccccc1 (centres unmarked),4.41%
9,COc1cc(CC(=O)OCC(=O)Nc2cc([N+](=O)[O-])ccc2F)cc(OC)c1OC,-7.7%
10,Nc1ncnc2c1nc(N1CCCCC1)n2[C@@H]1O[C@H](CO)[C@@H](O)[C@H]1O,4.36%
11,COc1ccc(S(=O)(=O)N2CCC(C(=O)N[C@@H](C)C(=O)NC3CC3)CC2)cc1,15.4%
12,CO[C@H]1C=C2CCN(C)[C@H]2C2c3cc4c(cc3C(=O)O[C@@H]21)OCO4.O=[N+]([O-])O (some centres unmarked),10.5%
13,NC(=O)N/N=C/c1ccc(-n2nncc2-c2ccc(Cl)cc2)cc1,5.68%
14,CC1=NNC(=O)C1CCC(=O)N/N=C\c1ccccc1[N+](=O)[O-] (centres unmarked),3.25%
15,CCCN(CCC)c1nc2ccccc2n2c(C)nnc12,11.6%
16,CCOc1ccc(NCc2cccn2-c2nnc(N3CCC(C(=O)NCCCN4CCCCC4CC)CC3)s2)cc1 (centres unmarked),-1.84%
17,Cc1ccc(S(=O)(=O)N2CCN(C(=O)c3c(-c4ccccc4)noc3C)CC2)c(C)c1,-7.79%
18,CCOc1ccccc1NS(=O)(=O)c1cccc2nsnc12,3.49%
19,CCN(C1CCCCC1)S(=O)(=O)c1ccc(S(=O)(=O)N2CCN(CCC#N)CC2)cc1,5%

row,SMILES,"hERG current change (%, negative = inhibition) at 1uM"
1,COCCCN(Cc1cccs1)S(=O)(=O)c1csc(C(N)=O)c1,13%
2,O=Cc1ccc(C(=O)OCC(=O)N2CCCC2)cc1,15.2%
3,Cc1cc(C)c(C#N)c(Nc2ccccc2C)n1,11.6%
4,CC(C)CC(=O)NC(=S)Nc1ccc(NC(=O)c2ccco2)cc1,18.2%
5,O=C(CSc1nn(-c2ccccc2)c(=S)s1)Nn1cnnc1,8.5%
6,O=C(NCCCN1CCCC1=O)c1ccc(Cl)c(S(=O)(=O)N2CCCCC2)c1,9.57%
7,CCc1cc2c(nc1CC)CCN(CC/C(C)=N/O[C@@H](C)c1cc(-c3c(C)cc(C)cc3C)no1)C2,6.45%
8,CCOC(=O)C1=C(C)NC(=O)CC1c1ccccc1 (centres unmarked),8.94%
9,COc1ccc(C)cc1N(C(=O)c1cccc(F)c1)c1nc2ccccc2s1,-6.86%
10,CC(CC(=O)Nc1ncc([N+](=O)[O-])s1)c1ccccc1 (centres unmarked),6.02%
11,CC(=O)c1ccc(N2CCN(C(=O)c3ccc(NC(=O)C4CCCO4)cc3)CC2)cc1 (centres unmarked),3.59%
12,CC(C)CNC(=S)N(CCN(C)C)Cc1cc2cc3c(cc2[nH]c1=O)OCCO3,10.1%
13,COc1ccc(-c2cc(C(=O)NN)n(-c3ccccc3)n2)cc1,-5.62%
14,OCCNc1nc2ccccc2n1-c1ccccc1,9.72%
15,CCOc1ccc(C2=[N+]([O-])C(C)(C)N(O)C2(C)C)cc1,12.3%
16,CCn1c(SCC(=O)NC2CCCCC2C)nnc1-c1ccc(OC)cc1 (centres unmarked),2.58%
17,Cc1nccn1CCc1n[nH]c(=S)n1Cc1ccccc1,-2.64%
18,COc1ccccc1Oc1ccc(NC(=O)c2ccc(Cl)cc2)cc1,13.3%
